# Results from paper PMC4336329 (PLoS ONE, 2015).
# The whole screen tested about 310,000 compounds, of which about 14,000 (4.5%) showed an effect of 50% or more. Effects have a minus sign here. This is one part of the list.
# Target: human ether-à-go-go-related gene (hERG) potassium channel (human, UniProt Q12809)
# Assay: primary screen, population patch clamp on CHO cells stably expressing hERG
# 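Further: peak tail current of the secondary pulse compared with the same well before compound.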
# Chain of human ether-à-go-go-related gene (hERG) potassium channel (Q12809 whole entry, looked up): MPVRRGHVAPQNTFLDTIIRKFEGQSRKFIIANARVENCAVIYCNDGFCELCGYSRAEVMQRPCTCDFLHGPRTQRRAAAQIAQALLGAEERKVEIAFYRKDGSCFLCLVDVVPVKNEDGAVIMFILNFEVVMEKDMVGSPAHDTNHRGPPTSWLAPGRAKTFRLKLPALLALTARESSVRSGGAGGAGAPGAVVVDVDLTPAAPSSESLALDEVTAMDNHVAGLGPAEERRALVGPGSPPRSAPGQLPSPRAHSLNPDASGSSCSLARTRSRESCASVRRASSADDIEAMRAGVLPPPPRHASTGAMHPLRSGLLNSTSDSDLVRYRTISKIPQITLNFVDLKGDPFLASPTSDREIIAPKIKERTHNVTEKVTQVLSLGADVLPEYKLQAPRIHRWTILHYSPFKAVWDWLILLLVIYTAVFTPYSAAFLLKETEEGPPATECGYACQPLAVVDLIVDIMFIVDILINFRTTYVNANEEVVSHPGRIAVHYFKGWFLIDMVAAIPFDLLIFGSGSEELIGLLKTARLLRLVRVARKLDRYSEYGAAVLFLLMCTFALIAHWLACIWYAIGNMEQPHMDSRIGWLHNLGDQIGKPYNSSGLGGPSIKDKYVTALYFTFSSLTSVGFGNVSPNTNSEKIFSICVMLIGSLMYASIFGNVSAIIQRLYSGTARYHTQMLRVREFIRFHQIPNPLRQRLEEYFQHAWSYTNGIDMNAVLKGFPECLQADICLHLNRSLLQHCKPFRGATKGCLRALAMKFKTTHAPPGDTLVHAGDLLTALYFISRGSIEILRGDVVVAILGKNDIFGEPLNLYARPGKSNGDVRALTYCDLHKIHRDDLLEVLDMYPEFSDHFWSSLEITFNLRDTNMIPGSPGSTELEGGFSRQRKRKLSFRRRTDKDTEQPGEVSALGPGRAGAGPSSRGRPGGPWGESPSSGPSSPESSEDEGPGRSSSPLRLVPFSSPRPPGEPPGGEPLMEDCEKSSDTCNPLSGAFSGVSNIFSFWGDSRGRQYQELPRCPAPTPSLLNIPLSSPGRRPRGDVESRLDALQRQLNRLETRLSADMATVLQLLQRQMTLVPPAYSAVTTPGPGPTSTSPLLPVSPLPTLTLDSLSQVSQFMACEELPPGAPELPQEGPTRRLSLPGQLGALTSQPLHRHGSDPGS
row,SMILES,"hERG current change (%, negative = inhibition) at 10uM [%]"
1,Cc1ccc(N2CC(C(=O)Nc3ccc(S(=O)(=O)N4CCOCC4)cc3)CC2=O)cc1 (stereo not drawn),1.73
2,C=CCOc1ccc(C2/C(=C(\O)c3c(C)[nH]c(C(=O)OC)c3C)C(=O)C(=O)N2CCN(C)C)cc1 (stereo not drawn),17.3
3,CCOC(=O)c1nn(-c2ccccc2F)c(-c2ccccc2)c1C(=O)c1ccccc1,7.34
4,Cc1nnc(NC(=O)CC(CN(C)S(=O)(=O)c2ccccc2)c2ccccc2)s1 (stereo not drawn),-18.7
5,COC(=O)CN(c1cc(OC)ccc1OC)S(=O)(=O)c1ccc(OC)c(OC)c1,-12
6,CCOCC(=O)Nc1cc(C(=O)NCCc2ccccc2)ccc1Cl,-16.9
7,CN(Cc1ccccn1)Cc1nc(COc2ccccc2)no1,-2.85
8,Cc1cc(N2C(=O)C(O)=C(C(=O)c3cccs3)C2c2ccc(F)cc2)no1 (stereo not drawn),15.9
9,O=C(CNC(=O)c1cccc(-n2cnnn2)c1)Nc1ccc(F)c(F)c1,-0.737
10,Cn1ccnc1C1CCCCN1C(=O)c1cc(COc2ccc(F)cc2F)on1 (stereo not drawn),-20.3
11,O=C(CCNC(=O)N1C[C@H]2C[C@@H](C1)c1cccc(=O)n1C2)Nc1cccc(Cl)c1,7.05
12,CS(=O)(=O)NCCC1=CCCCC1,10.8
13,CCc1cc(C(=O)Nc2nnc(C3CC3)s2)sc1C,-0.944
14,CS/C(=N\S(=O)(=O)c1cccs1)Nc1ccc(F)c(Cl)c1,-8.86
15,O=C(CSc1ccc(-c2ccncc2)nn1)N1CCN(c2ccccc2)CC1,-6.6
16,O=C(c1cc(Br)ccc1Cl)N1CCN(c2ccccn2)CC1,-7.85
17,CN(C)c1ccc(S(=O)(=O)NCC(=O)N2CCN(c3ccccc3)CC2)cc1[N+](=O)[O-],-20.4
18,Cc1ccc(N2CCN(CC(O)COc3ccccc3)CC2)cc1 (stereo not drawn),-50.9
19,O=c1c(C(c2c(O)nc3n(c2=O)CCS3)c2cccc3ccccc23)c(O)nc2n1CCS2,-2.13
20,Cc1ccc(CNC(=O)/C=C/c2ccccc2Cl)cc1,12.5
21,Cc1c(C)c2cc(Cl)c(OCc3nn[nH]n3)cc2oc1=O,7.52
22,COc1ccccc1NC(=O)NCCc1c[nH]c2ccccc12,8.87
23,c1ccc(Sc2ncnc3c2oc2ccccc23)nc1,6.59

row,SMILES,"hERG current change (%, negative = inhibition) at 10uM [%]"
1,CC1CCC(NC(=O)CCCCn2c(=O)[nH]c3ccsc3c2=O)CC1 (stereo not drawn),21.8
2,CCOC(=O)c1c(NC(=O)COc2cccc3c2CCN(C)C3=O)sc2c1CCC2,-5.86
3,Cc1cccc(NC(=O)c2cccc(S(=O)(=O)N3CCCCC3)c2)c1,-19.5
4,COCc1c(C(=O)NC(C)c2ccc(S(N)(=O)=O)cc2)oc2ccccc12 (stereo not drawn),14.1
5,C/C(=N\NC(=O)c1ccc2ccccc2c1)c1cccnc1,4.69
6,Cc1occc1-c1nnc(SCC(=O)Nc2nc(-c3ccccc3)cs2)o1,11
7,O=C(O)c1c[nH]c2ccc(S(=O)(=O)N3CCOCC3)cc12,17.7
8,O=C(NCc1ccccc1)c1ccc(F)c(S(=O)(=O)N2CCOCC2)c1,-17.4
9,C=CCOc1ccc2ccccc2c1CNc1ncn[nH]1,-31.9
10,Cc1ccc(Nc2nnc(-c3ccc4c(c3)OCO4)o2)c(C)c1,19.8
11,COc1cccc(NC(=O)CSc2nnc(-c3ccco3)c(-c3ccco3)n2)c1,-59.6
12,COc1cccc(NC(=O)CSc2nc3c(oc4ccccc43)c(=O)[nH]2)c1,2.23
13,O=C(CSc1n[nH]c(-c2ccco2)n1)Nc1ccccc1F,15.3
14,CC(=O)Nc1ccc(C(=O)OCC(=O)NCc2cccs2)cc1,3.14
15,O=C(Nc1ccccc1F)C(=O)Nc1cccc2ccccc12,1.62
16,CN(C(=O)CSc1nnc(-c2ccco2)n1Cc1ccccc1)C1CCS(=O)(=O)C1 (stereo not drawn),-6.24
17,O=C(COc1ccc(Br)cc1)N1CCN(Cc2ccc3c(c2)OCO3)CC1,-53.9
18,Cc1nnc(NCc2ccccc2)c2ccccc12,2.49
19,Cc1ccc(C(=O)c2c3ccccc3[n+]([O-])n2CCC(=O)O)cc1,14.4
20,COc1ccc(NC(=O)CN(C)S(=O)(=O)c2ccc(Cl)cc2)cc1Cl,-3.05
21,CC(=O)Nc1cccc(-c2cn3ccc(C)cc3n2)c1,1.06
22,CCCCN(CC(=O)NCc1ccc(F)cc1)C(=O)c1ccco1,8.72
23,NNc1nc(NCc2ccccc2)nc(N2CCOCC2)n1,-1.19

row,SMILES,"hERG current change (%, negative = inhibition) at 10uM [%]"
1,C=CCn1c2ccccc2c2nn(C)c(=S)nc21,10.2
2,CCCCC(c1nnnn1C(C)C)N1CCN(C(=O)c2ccco2)CC1.Cl (stereo not drawn),-18.9
3,COc1cccc(NC(=O)c2cnn(-c3ccccc3)c2C)c1,-4.54
4,COc1ccc(Cc2nnc(NC(=O)c3cccs3)s2)cc1,-3.76
5,Nc1c(C(=O)Nc2cccc(F)c2)nnn1-c1cccc(C(F)(F)F)c1,10.1
6,CC(C)CNC(C)C(=O)Nc1ccc(S(N)(=O)=O)cc1 (stereo not drawn),34.4
7,CC(=O)Nc1cccc(NC(=O)c2cc(-c3cccnc3)nc3ccc(Br)cc23)c1,-12.2
8,COc1ccccc1N(CC(=O)Nc1ccc(Cc2ccncc2)cc1)S(=O)(=O)c1ccccc1,-1.61
9,O=C(Cn1nc(-c2ccccc2)c2ccccc2c1=O)NN1CCOCC1,5.24
10,CCOc1ccccc1NC(=O)c1sc2nc(C)nc(N3CCOCC3)c2c1C,-14.4
11,COC(=O)NC1CCC(NC(=O)OC)CC1 (stereo not drawn),12.9
12,CC(=O)Nc1ccc2sccc2c1,13.9
13,O=C(CN1CCc2ccccc2C1)Nc1ccc(OC(F)(F)F)cc1,-6.92
14,O=C(c1ccc(F)cc1)N1CCCC(c2ccccc2)C1 (stereo not drawn),15.8
15,CC(NC(=S)NNS(=O)(=O)c1cccc([N+](=O)[O-])c1)c1ccccc1 (stereo not drawn),16.1
16,CC(C)CN(C(=O)COC(=O)CNC(=O)c1ccccc1F)C1CCS(=O)(=O)C1 (stereo not drawn),12.9
17,CC1CCC(N2CCNCC2)CC1.Cl (stereo not drawn),16.5
18,Cc1nc(C(F)(F)F)c(C(=O)NC(=O)Nc2ccccc2)s1,4.57
19,CC1CCCN(S(=O)(=O)c2ccc(NC(=O)C3CC(=O)N(c4ccccc4)C3)cc2)C1 (stereo not drawn),-7.32
20,COCCn1ccc2c(OCC(=O)NCc3ccccc3)cccc2c1=O,-35.9
21,CCOCC(=O)NCc1ccc2c(c1)cc(C)n2C,-14.8
22,Cc1ccccc1-n1ncc(C(C)NS(=O)(=O)c2sccc2C)c1C (stereo not drawn),3.82
23,CCOc1ccc(C(=O)NCC(=O)NC(C)c2ccc(-n3ccnc3)cc2)cc1OCC (stereo not drawn),-77.4

row,SMILES,"hERG current change (%, negative = inhibition) at 10uM [%]"
1,Cc1nc2oc3ccc(Cl)cc3c(=O)c2cc1C(=O)O,19
2,CCN1CCN(C(=O)CSc2ccc(C)cc2)CC1,2.51
3,CCCN1CCc2[nH]c(=S)[nH]c(=O)c2C1,5.71
4,CC(C)NC(=O)NC(=O)COc1c(F)c(F)cc(F)c1F,10.5
5,COc1ccc(-n2c(SCC(=O)NCC3CCCO3)nc3n[nH]c(C)c3c2=N)cc1 (stereo not drawn),9.55
6,COc1ccc(CCNC(=O)CN(c2ccccc2OC)S(C)(=O)=O)cc1,2.74
7,O=C1c2ccccc2NC(c2cccc(O)c2)N1c1ccccc1 (stereo not drawn),11.6
8,Cc1cccc(NC(=O)CSc2nc3[nH]ncc3c(=O)[nH]2)c1C,22.3
9,C=CCn1c(Cc2nc3ccccc3[nH]2)n[nH]c1=S,16.4
10,O=C(Nc1ccccc1F)C1CCCN(S(=O)(=O)c2cccc3cccnc23)C1 (stereo not drawn),1.36
11,Cc1ccccc1OCCC(=O)N(Cc1ccccc1)c1c(N)n(Cc2ccccc2)c(=O)[nH]c1=O,-7.3
12,CC(C)C(=O)N=c1sc2cccc(F)c2n1C,-1.46
13,Cc1ccc(-n2nnnc2SCC(=O)N2c3ccccc3NC(=O)C2(C)C)cc1,-22.3
14,COc1cc(OC)cc(C(=O)NC(C(=O)Nc2ccc3c(c2)CCC3)C(C)C)c1 (stereo not drawn),-1.96
15,CC(=O)c1ccccc1NS(=O)(=O)c1ccccc1Cl,12.7
16,O=C(NC(=S)NNC(=O)c1cnccn1)c1ccc(Cl)cc1,13.6
17,COc1ccc(S(=O)(=O)N2CCCCC2)cc1NC(=O)CSc1nnc(C2CC2)n1C,-23.6
18,O=C(Oc1ccc(-c2nnco2)cc1)c1ccc(F)c(S(=O)(=O)N2CCOCC2)c1,-3.26
19,O=C(CSc1nccn1-c1ccccc1)Nc1ccc2c(c1)OCO2,0.552
20,CN(c1ccccc1)S(=O)(=O)c1ccc(Cl)nc1,10.8
21,CCOC(=O)C1CCN(c2nc3cc(OC)ccc3cc2C#N)CC1,-16
